Data from PubChem BioAssay (Tox21).
Values joined by “and” are separate entries in the source; they are usually repeats but may differ in a detail not shown here. Identical values can stand only once. This list was built around the results that the source calls inconclusive (neither active nor inactive); the mix of calls is not that of the screen. A potency beside an inconclusive call is a rough fit, not a confirmed value. Active and inactive are the calls of the source. Calls follow the shape of the dose curve; as a rule, active = well fitted curve in the direction sought with a large enough effect in the repeat runs; inconclusive = weak or mixed curves; inactive = no such curve, though single readings can be large; an effect the other way counts as inactive or inconclusive.

Assay: qHTS RealTime-Glo MT Cell Viability Assay in HepG2 cells - 0 hour (AID 1224889); also: nearly all actives have a fitted effect of over 50% in size
Settings: RealTime-Glo luminescence; series mostly up to 76.8 µM; activity change, negative = cytotoxicity: at the top concentration
Summary of the method: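 qHTS, HepG2, 600 cells/well, RealTime-Glo (NanoLuc + prosubstrate) added with cells; 5 h preincubation; DMSO compound addition; 37 C; luminescence at 0/8/16/24/32/40 h.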
% is scaled to controls: 0 for no effect and ±100 for the full control effect; potency is read from the fitted curve at half-maximal effect; tags tell the direction and shape of the fitted curve.

Row | Compound | Potency | activity change, negative = cytotoxicity
1 | CC(=O)OCC(=O)[C@@]12N=C(C)O[C@@H]1C[C@H]1[C@@H]3CCC4=CC(=O)C=C[C@]4(C)[C@H]3[C@@H](O)C[C@@]12C | inconclusive: 38.9 µM [cytotoxic, partial curve] | –
2 | Cc1cccnc1 | inactive | –
3 | CC(C)(O)c1ccc(CNC(=O)c2cccnc2Oc2ccc(F)cc2)cc1 | – | inactive: -2%
4 | CCOCCOCC | – | inactive: 0.87%
5 | COC(=O)c1ccccc1C(=O)c1ccc(OCCN2CCCCC2)cc1 | inconclusive: 19 µM [cytotoxic, partial curve] | –
6 | CCCCOCCOCCOCCOCCO | – | inactive: -0.153%
7 | C[C@@H]1C[C@H]2[C@@H]3CCC4=CC(=O)C=C[C@]4(C)[C@@]3(F)[C@@H](O)C[C@]2(C)[C@H]1C(=O)CO | inconclusive: 19 µM [cytotoxic, partial curve] | –
8 | CCCCC1C(=O)N(c2ccccc2)N(c2ccccc2)C1=O | inconclusive: 54.6 µM [cytotoxic, partial curve, poor fit] and inconclusive: 49 µM [cytotoxic, partial curve, poor fit] and inconclusive: 23.9 µM [cytotoxic, partial curve, poor fit] | –
9 | CC1(C)O[C@@H]2C[C@H]3[C@@H]4CCC5=CC(=O)C=C[C@]5(C)[C@H]4[C@@H](O)C[C@]3(C)[C@]2(C(=O)CO)O1 | inconclusive: 10.7 µM [cytotoxic, partial curve] | –
10 | COc1cccc(N(C)C(=S)Oc2ccc3c(c2)CCCC3)n1 | – | inactive: -4.74% [at 35.3 µM]
11 | NCCCN1CCOCC1 | – | inactive: -0.746%
12 | CCN(CC)c1ccc(C(=O)c2ccccc2C(=O)O)c(O)c1 | inactive | –
13 | CCCCCCOC(=O)CC | – | inactive: 5.57%
14 | C[C@@H](N)C(=O)O | – | inactive: -0.749% [at 35.3 µM]
15 | COCC(O)CO (centres undefined) | – | inactive: -8.46%
16 | CC(C)C[C@H](NC(=O)OCC1c2ccccc2-c2ccccc21)C(=O)O | inconclusive: 43.6 µM [cytotoxic, partial curve] | –
17 | O=S(=O)(O)CC(O)CCl (centres undefined) | – | inactive: -9.13%
18 | CCOC(=O)COC(=O)c1ccccc1C(=O)OCC | – | inactive: -2.02%
19 | NC(=O)c1ccccc1 | – | inactive: 0.201%
20 | CCC1(c2ccccc2)C(=O)NCNC1=O | inactive | –
21 | C=C(C)C(=O)OCCC(C)OC(=O)C(=C)C (centres undefined) | – | inactive: -2.24%
22 | CC(C)=CC(=O)O | – | inactive: 2.19%
23 | CC(C)(CO)C(O)C(=O)NCCCO (centres undefined) | – | inactive: 0.715%
24 | Cc1nc(C)c(C)nc1C | – | inactive: 7.29%
25 | Cc1ccnc(N)c1 | – | inactive: -1.36%

Assay: A CellTox Green Cytotoxicity Assay to monitor cytotoxicity in HepG2 cells - 8 hour (AID 1224890); also: nearly all actives have a fitted effect of over 45% in size
Settings: CellTox Green fluorescence; series mostly up to 76.8 µM; cytotoxicity increase: at the top concentration
Summary of the method: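 Real-time cytotoxicity: fluorescence of a cell-impermeant cyanine dye binding DNA of dead HepG2 cells, measured repeatedly (0–40 h) during compound exposure at 37 C. Cells seeded 600/well with reagent, dosed after 5 h.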

Row | Compound | Potency | cytotoxicity increase
26 | CCCC(=O)OCCC(C)C | inconclusive: 0.123 µM [activator, partial curve] | –
27 | O=C(O)c1ccc(O)c(O)c1 | – | inactive: -1.04%
28 | CC(C)COC(=O)c1ccccc1 | – | inactive: 0.425%
29 | COc1ccc(NC(C)=O)cc1 | – | inactive: -9.89%
30 | CCCCNc1cc(C(=O)O)cc(S(N)(=O)=O)c1Oc1ccccc1 | inconclusive: 26.8 µM [activator, single point] | –
31 | CCCCOc1ccc(N)cc1 | – | inactive: -2.3%
32 | CC(C)(C)c1cc(CCC(=O)NN)cc(C(C)(C)C)c1O | – | inactive: 6.28%
33 | CC(C)=CCC[C@H](C)CCO | inconclusive: 61.6 µM [activator, partial curve, poor fit] | –
34 | CCCCCCCCCCCCCCCCC(=O)O | – | inactive: 4.05% [at 35.3 µM]
35 | CCc1cccc(C)c1N(C(=O)CS(=O)(=O)O)C(C)COC (centres undefined) | – | inactive: -9.26%
36 | C=CCc1ccc(O)c(OC)c1 | inactive | –
37 | Cc1cccc(Nc2ccccc2C(=O)O)c1C | inactive | –
38 | Cc1cc(O)c(Cl)cc1C | inconclusive: 54.9 µM [activator, single point] | –
39 | CC(=O)OCc1ccc2c(c1)OCO2 | inactive | –
